Among all 310,000 compounds or so, about 2,200 (0.71%) showed an effect of 50% or more. Effects have a minus sign here. This is one part of the list.
Biological target: human ether-à-go-go-related gene (hERG) potassium channel (human, UniProt Q12809)
Assay: primary screen, population patch clamp on CHO cells stably expressing hERG

Sequence of human ether-à-go-go-related gene (hERG) potassium channel (Q12809 whole entry, looked up): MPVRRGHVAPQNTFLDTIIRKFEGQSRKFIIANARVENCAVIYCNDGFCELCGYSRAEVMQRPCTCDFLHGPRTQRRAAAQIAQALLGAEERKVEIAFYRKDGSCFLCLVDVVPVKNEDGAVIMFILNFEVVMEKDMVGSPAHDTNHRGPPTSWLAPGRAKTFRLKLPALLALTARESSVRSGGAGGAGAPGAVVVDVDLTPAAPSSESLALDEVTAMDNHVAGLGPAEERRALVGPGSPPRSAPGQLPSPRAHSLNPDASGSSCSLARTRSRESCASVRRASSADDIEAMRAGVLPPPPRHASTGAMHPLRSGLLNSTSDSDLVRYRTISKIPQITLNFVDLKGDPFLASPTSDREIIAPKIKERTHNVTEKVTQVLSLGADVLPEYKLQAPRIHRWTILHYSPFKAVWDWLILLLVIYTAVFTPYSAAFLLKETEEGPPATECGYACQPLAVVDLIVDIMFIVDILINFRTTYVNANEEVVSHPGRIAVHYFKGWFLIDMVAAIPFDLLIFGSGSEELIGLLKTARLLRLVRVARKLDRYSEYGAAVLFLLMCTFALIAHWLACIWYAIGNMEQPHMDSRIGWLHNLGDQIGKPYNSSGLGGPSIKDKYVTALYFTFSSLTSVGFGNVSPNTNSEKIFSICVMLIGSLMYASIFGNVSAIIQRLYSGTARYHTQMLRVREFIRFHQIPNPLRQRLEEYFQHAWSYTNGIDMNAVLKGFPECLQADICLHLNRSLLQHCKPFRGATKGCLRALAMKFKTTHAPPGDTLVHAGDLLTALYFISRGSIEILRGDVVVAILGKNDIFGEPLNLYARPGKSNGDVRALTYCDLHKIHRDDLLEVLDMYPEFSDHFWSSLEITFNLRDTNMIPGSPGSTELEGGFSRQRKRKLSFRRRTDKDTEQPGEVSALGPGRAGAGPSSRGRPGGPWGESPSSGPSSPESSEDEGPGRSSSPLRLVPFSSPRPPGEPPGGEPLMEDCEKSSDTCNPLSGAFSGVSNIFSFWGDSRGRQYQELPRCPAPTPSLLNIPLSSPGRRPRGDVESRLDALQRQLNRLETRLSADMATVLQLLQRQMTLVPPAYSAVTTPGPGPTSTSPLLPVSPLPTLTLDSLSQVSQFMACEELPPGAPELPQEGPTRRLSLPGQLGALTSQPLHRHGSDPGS

SMILES	hERG current change (%, negative = inhibition) at 1uM
CSc1ccc(N/N=C(/C#N)S(=O)(=O)C(C)(C)C)cc1	16%
O=C(COC(=O)c1ccc2ncsc2c1)NCc1cccc(Cl)c1	-9.48%
COc1ccc(Br)cc1/C=N/NC(=O)c1ccco1	14%
CCN1CCN(S(=O)(=O)c2ccc(Cl)c(C(=O)N(C)CCOc3ccc(Cl)cc3)c2)CC1	0.373%
CCOC(=O)c1c(C)[nH]c(C(=O)CSc2ccccc2)c1C	1.9%
COc1ccc(-c2c(C)c3ccc(OCC(C)=O)cc3oc2=O)cc1	7.6%
CC(=O)c1cccc(NC(=O)N2C3CCC2CC(NC(=O)Nc2ccccc2)C3)c1 (stereo not shown)	5.48%
O=C(c1cnc2nc3ccccc3n2c1)c1cc(F)ccc1O	-6.8%
O=C(NCCSc1ccccc1)c1ccco1	2.33%
CN(C)C1=NCCN1CCCC1CCCCC1	3.91%
COCCn1c(C)cc(C(=O)CN2C(=O)NC3(CCCCCCC3)C2=O)c1C	-15%
CC(=O)c1ccc(N2C(=NC(=O)COc3ccccc3)SC3CS(=O)(=O)CC32)cc1 (stereo not shown)	7.75%
CCCN(CCC)S(=O)(=O)c1cccc(C(=O)Nc2ccc3c(c2)OCO3)c1	-6.21%
COc1ccc(-n2nc3c(c2NC(=O)C(C)Oc2ccccc2)CS(=O)(=O)C3)cc1 (stereo not shown)	15.9%
Cc1oc2ccc(O)cc2c1C(=O)c1ccc([N+](=O)[O-])cc1	10.4%
CCN(CC)c1ccc(/C=N/NC(=O)CNC(=O)c2cccs2)cc1	10.1%
O=C(COC(=O)C1CC2CCCC(C1)C2=O)Nc1ccccc1 (stereo not shown)	9.57%
Cc1c(C(=O)OCC(C)C)[nH]c2c1C(=O)CC(c1ccco1)C2 (stereo not shown)	2.16%
COc1ccccc1-n1c(SCC(=O)N2CCCCC2)nnc1-c1ccccc1O	-0.676%
CCCS(=O)(=O)N1CCC(C(=O)N2CCC(Cc3ccccc3)CC2)CC1	-16%
COc1cc(CNC2CCCC2)cc(Br)c1OCC(=O)Nc1ccccc1C	2.93%
O=C(NNc1nc(-c2ccc(F)cc2)cs1)c1ccccc1	10.2%

SMILES	hERG current change (%, negative = inhibition) at 1uM
Cc1c(OCC(N)=O)ccc2c(-c3ccccc3)cc(=O)oc12	14.3%
O=C(NNC(=O)c1cccnc1)Nc1cccc2ccccc12	11.4%
CCCOc1ccc(-c2nnc(-c3ccncc3)o2)cc1	5.63%
Cc1cnc(C(=O)Nc2ccc(N3CCOCC3)cc2)cn1	12%
CCOCCCNC(=O)CCc1nnc2ccc(N3CCCCC3)nn12	13.5%
CNC(=O)NC(=O)COC(=O)c1cccc(S(=O)(=O)N2CC3(C)CC2CC(C)(C)C3)c1 (stereo not shown)	11.2%
COc1ccc(NC(C)=O)cc1S(=O)(=O)NC1CCSc2ccccc21 (stereo not shown)	-3.2%
COCCNC(=O)CN(c1ccc(C)cc1)S(=O)(=O)c1ccc(SC)cc1	-11.2%
Cc1ccccc1-n1ncc2c1CC(C)(C)CC2NC(=O)CCC(F)(F)F (stereo not shown)	2.99%
COCc1ccc(C(=O)N2CCC(CCC(=O)Nc3cccc(C)c3)CC2)s1	7.89%
Cc1noc(C)c1C(=O)NC(C)C12CC3CC(CC(C3)C1)C2 (stereo not shown)	2.85%
COC(=O)c1nc(C(=O)OC)c(C(=O)OC)nc1C(=O)OC	10.5%
Cl.O=C(NCCN1CCCC1)c1ccc(Cl)cc1Cl	16.6%
O=C(O)c1cnc(-c2ccccc2)nc1Sc1cccc(Cl)c1	23.8%
COC(=O)C1=C[C@@H](C(=O)OC)[C@@H]2C3=C(C(=O)[C@]2(C)NC(=O)c2ccccc2)[C@H](C)n2c(=O)n(C)c(=O)n2[C@@H]3C1	4.58%
O=C(COc1ccc2ccccc2c1Br)NNC(=O)Nc1ccccc1	12.4%
CN=c1scc(-c2ccc([N+](=O)[O-])cc2)n1/N=C/c1ccco1	5.91%
Cc1cccc(N(O)C(=O)Nc2cccc(Cl)c2)c1	14%
COc1cccc(N2C(=O)CC(N3CCc4ccccc4C3)C2=O)c1 (stereo not shown)	13.1%
Cc1cc(C)c(S(=O)(=O)c2ccc(Cl)cc2C)c(Cl)n1	17%
O=C(NCc1ccccc1Cl)C1CCN(S(=O)(=O)N2CCOCC2)CC1	20.2%
CCOCCn1c(N2CCCC2)nc2c1c(=O)[nH]c(=O)n2C	17.3%

SMILES	hERG current change (%, negative = inhibition) at 1uM
CC(=O)Nc1ccc(NC(=O)C2CCCN2C(=O)NC2CCCCC2)cc1 (stereo not shown)	12.2%
CCCn1c(=O)c(C(=O)NCCc2ccc(OC)c(OC)c2)c(O)c2ccccc21	10.8%
Cc1noc(C)c1CSCC(=O)OCC(=O)Nc1sccc1C#N	7.06%
CN(C)c1ccc(/C=C/c2nc3ccccc3c(=O)n2CCO)cc1	4.16%
O=C(Nc1cccc(S(=O)(=O)N2CCCCC2)c1)Nc1ccc(Cl)cc1Cl	11%
O=C(COc1ccccc1Cl)Nc1ccc(N2CCCC2)cc1	5.83%
C=CCc1ccc(OCC(O)CN2CCC(Cc3ccccc3)CC2)c(OC)c1.Cl (stereo not shown)	-75%
COc1ccc2[nH]c(=O)c(CN(C3CCCCC3)C(c3nnnn3Cc3ccco3)C(C)C)cc2c1 (stereo not shown)	12.3%
CCOC(=O)c1c(NC(C)=O)sc2c(O)c(Br)cc(Br)c12	6.01%
OCCC1CN(CC(c2ccccc2)c2ccccc2)CCN1C1CCCC1 (stereo not shown)	-74.5%
CCCS(=O)(=O)N1CCN(CC2CC3C=CC2C3)CC1.O=C(O)C(=O)O (stereo not shown)	8.96%
COc1ccc(NC(=O)CC2C(=O)N(C)C(=S)N2Cc2cccs2)cc1 (stereo not shown)	-2.48%
CCn1nnnc1SCC(=O)Nc1ccc(OC)cc1	9.53%
COc1ccccc1N1CCN(S(=O)(=O)c2ccccc2F)CC1	-7.11%
CC1(C)C(=O)Nc2ccccc2N1C(=O)COC(=O)c1cc(S(=O)(=O)N2CCOCC2)ccc1F	14.7%
COc1ccc2nc3cc(Cl)ccc3c(Nc3cc(CN4CCCC4)c(O)c(CN4CCCC4)c3)c2n1.O=P(O)(O)O	11.5%
O=C(O)C1C2CCC(O2)C1C(=O)Nc1cccc(Br)c1 (stereo not shown)	19.9%
COc1ccc(CN2CC(C(=O)NCc3ccc4c(c3)OCO4)CC2=O)cc1 (stereo not shown)	-13.5%
CCCCCCCCC(=O)O	15.5%
O=C(/C=C/c1ccc([N+](=O)[O-])cc1)N1CCN(S(=O)(=O)c2ccccc2)CC1	-11.8%
O=C(Nc1ccccc1)c1ccc(-c2ccc(F)cc2)s1	13.4%
O=C(c1ccc(-c2ccccc2)cc1)C1CCCN(Cc2ccncc2)C1 (stereo not shown)	2.06%

SMILES	hERG current change (%, negative = inhibition) at 1uM
O=C(Cc1ccccc1)NNS(=O)(=O)c1ccc([N+](=O)[O-])cc1	4.45%
Cc1ccc(OCCn2c(C)nc3ccccc32)cc1	13%
CCOc1cc(/C=N\NC(=O)OC(C)(C)C)ccc1OC(=O)c1ccco1	13.3%
O=C(NC1CCCC1)C(c1ccco1)N(Cc1ccccc1)C(=O)c1csnn1 (stereo not shown)	-2.6%
CC(C)Cn1c(SCC(=O)Nc2ncccn2)nc2ccccc21	9.53%
Cc1ccc(S(=O)(=O)N2CCOC2CNC(=O)C(=O)NCC(C)C)cc1 (stereo not shown)	6.55%
COc1cc(C(=O)NC(=S)Nc2ccc(Cl)c(C(=O)O)c2)cc(OC)c1OC	8.38%
COc1cccc(CNC23CC4CC(CC(C4)C2)C3)c1OCc1ccccc1.Cl	3.29%
Cc1onc(-c2ccccc2)c1CNS(=O)(=O)c1ccccc1	11.9%
Cc1ccc(Cl)cc1NS(=O)(=O)c1c(C)[nH]c(=O)[nH]c1=O	1.66%
COC(=O)c1cccc(NC(=O)c2cccc(N3C(=O)CCC3=O)c2)c1	3.15%
O=C(NCCN1C(=O)S/C(=C\c2ccc(Cl)c([N+](=O)[O-])c2)C1=O)C1=COCCO1	7.93%
COC(=O)C1=CN(Cc2ccc(OC)cc2)C=C(C(=O)OC)C1c1cccs1	10.5%
N#Cc1ccccc1S(=O)(=O)N1CCN(C(=O)[C@@H]2CCCN2C(=O)c2cccs2)CC1	0.267%
Cc1cccc(NC(=O)Cn2cc([N+](=O)[O-])cn2)n1	6.91%
CCCNNC(=O)C(O)(c1ccccc1)c1ccccc1	15.1%
COC(=O)c1cnn2c(C(F)(F)F)cc(-c3ccccc3)nc12	8.63%
Cc1cc(OCC(=O)NCCc2c[nH]c3ccccc23)c2c(C)c(C)c(=O)oc2c1	6.8%
O=C(C1CC(=O)N(c2ccccc2)C1)N1CCN(c2ccc(F)cc2)CC1 (stereo not shown)	-8.63%
COc1ccc(/C=C/C(=O)NC(=S)NNC(=O)Cc2cccs2)cc1OC	11.9%
Cc1c(C(=O)N2CCN(c3ccccc3F)CC2)sc2nc(-c3ccccc3)cn12	2.98%
CN1C(=O)C(C)(C)c2cc(S(=O)(=O)NCc3ccc(C(=O)NCc4ccco4)cc3)ccc21	12.6%
